Laboratory results published in article PMC12820563.
This is one part of the list. The list includes weakly bound sequences.

molecular target: T1, MBP-FoxP3dN (UniProt Q99JB6); experiment: PD-seq (MBP pull-down with sequencing); settings: 20 mM Tris-HCl pH 7.5, 100 mM NaCl, 1.5 mM MgCl2, 0.4 uM protein, 0.1 uM dsDNA library, 30 min, room temperature, amylose pull-down; high values mean tight binding; double strand, one strand shown
T1 sequence: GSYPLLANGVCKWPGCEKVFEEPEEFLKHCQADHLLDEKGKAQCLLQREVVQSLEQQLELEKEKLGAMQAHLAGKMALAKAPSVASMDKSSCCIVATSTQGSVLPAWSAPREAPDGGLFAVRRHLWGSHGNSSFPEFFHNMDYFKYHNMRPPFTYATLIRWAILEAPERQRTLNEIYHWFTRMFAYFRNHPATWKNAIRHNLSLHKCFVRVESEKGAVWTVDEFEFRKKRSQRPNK

| Sequence | binding signal (RPM ratio (pull-down/input)) |
| --- | --- |
| GATGATTGTTCTCCCAGCTGATGAATTGCATCCGTCGAGTAAACAAATTTTCCTAATCTTTCTGTTCAAGCGCCATCTAC | 4.2 |
| GATGATTGTTCTCCCAGCTGATGAATTTGATTCGTCGAGTAAACAAATTTTCCTAATCTTTCTGTTCAAGCGCCATCTAC | 1.8 |
| GATGATTGTTCTCCCAGCTGATGAATTATCGAGGTCGAGTAAACAAATTTTCCTAATCTTTCTGTTCAAGCGCCATCTAC | 0.218 |
| GATGATTGTTCTCCCAGCTGATGAATTATTTTTGTCGAGTAAACAAATTTTCCTAATCTTTCTGTTCAAGCGCCATCTAC | 0.947 |
| GATGATTGTTCTCCCAGCTGATGAATTAACCTGTTCGAGTAAACAAATTTTCCTAATCTTTCTGTTCAAGCGCCATCTAC | 0.281 |
| GATGATTGTTCTCCCAGCTGATGAATTGCTTTCCTCGAGTAAACAAATTTTCCTAATCTTTCTGTTCAAGCGCCATCTAC | 1.15 |
| GATGATTGTTCTCCCAGCTGATGAATTGCCCCCGTCGAGTAAACAAATTTTCCTAATCTTTCTGTTCAAGCGCCATCTAC | 0.406 |
| GATGATTGTTCTCCCAGCTGATGAATTATGGTTATCGAGTAAACAAATTTTCCTAATCTTTCTGTTCAAGCGCCATCTAC | 1.46 |
| GATGATTGTTCTCCCAGCTGATGAATTCGACGCATCGAGTAAACAAATTTTCCTAATCTTTCTGTTCAAGCGCCATCTAC | 0.992 |
| GATGATTGTTCTCCCAGCTGATGAATTCCTGAGCTCGAGTAAACAAATTTTCCTAATCTTTCTGTTCAAGCGCCATCTAC | 0.192 |
| GATGATTGTTCTCCCAGCTGATGAATTACTTGCTTCGAGTAAACAAATTTTCCTAATCTTTCTGTTCAAGCGCCATCTAC | 0.39 |
| GATGATTGTTCTCCCAGCTGATGAATTAAGGACGTCGAGTAAACAAATTTTCCTAATCTTTCTGTTCAAGCGCCATCTAC | 0.23 |
| GATGATTGTTCTCCCAGCTGATGAATTCTTGACCTCGAGTAAACAAATTTTCCTAATCTTTCTGTTCAAGCGCCATCTAC | 0.216 |
| GATGATTGTTCTCCCAGCTGATGAATTACTCTCCTCGAGTAAACAAATTTTCCTAATCTTTCTGTTCAAGCGCCATCTAC | 0.265 |
| GATGATTGTTCTCCCAGCTGATGAATTTGCCAAATCGAGTAAACAAATTTTCCTAATCTTTCTGTTCAAGCGCCATCTAC | 0.45 |
| GATGATTGTTCTCCCAGCTGATGAATTCAGCTGCTCGAGTAAACAAATTTTCCTAATCTTTCTGTTCAAGCGCCATCTAC | 0.48 |
| GATGATTGTTCTCCCAGCTGATGAATTGTCAATTTCGAGTAAACAAATTTTCCTAATCTTTCTGTTCAAGCGCCATCTAC | 0.48 |
| GATGATTGTTCTCCCAGCTGATGAATTTGGTGCCTCGAGTAAACAAATTTTCCTAATCTTTCTGTTCAAGCGCCATCTAC | 1.91 |
